Here are results for 64 molecules from PMC6919601, “Identification of Plasmodium dipeptidyl aminopeptidase allosteric inhibitors by high throughput screening” (PLoS ONE, 2019).

Structures are written as SMILES. Among all 110,000 compounds or so, about 230 (0.21%) showed an effect of 50% or more. The list shows a part of the results.
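Further: 30 min substrate incubation versus DMSO and 10 µM JCP410 controls.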

The target in the assay is DPAP1 (Plasmodium falciparum, UniProt Q8IIJ9). The assay is described as follows: primary screen, percent inhibition; read by cleavage of a fluorogenic dipeptide substrate; higher = more effect of the substance. Also on record: species or system P. falciparum D10 trophozoite lysates; single well.
Sequence of DPAP1 (Q8IIJ9 whole entry, looked up): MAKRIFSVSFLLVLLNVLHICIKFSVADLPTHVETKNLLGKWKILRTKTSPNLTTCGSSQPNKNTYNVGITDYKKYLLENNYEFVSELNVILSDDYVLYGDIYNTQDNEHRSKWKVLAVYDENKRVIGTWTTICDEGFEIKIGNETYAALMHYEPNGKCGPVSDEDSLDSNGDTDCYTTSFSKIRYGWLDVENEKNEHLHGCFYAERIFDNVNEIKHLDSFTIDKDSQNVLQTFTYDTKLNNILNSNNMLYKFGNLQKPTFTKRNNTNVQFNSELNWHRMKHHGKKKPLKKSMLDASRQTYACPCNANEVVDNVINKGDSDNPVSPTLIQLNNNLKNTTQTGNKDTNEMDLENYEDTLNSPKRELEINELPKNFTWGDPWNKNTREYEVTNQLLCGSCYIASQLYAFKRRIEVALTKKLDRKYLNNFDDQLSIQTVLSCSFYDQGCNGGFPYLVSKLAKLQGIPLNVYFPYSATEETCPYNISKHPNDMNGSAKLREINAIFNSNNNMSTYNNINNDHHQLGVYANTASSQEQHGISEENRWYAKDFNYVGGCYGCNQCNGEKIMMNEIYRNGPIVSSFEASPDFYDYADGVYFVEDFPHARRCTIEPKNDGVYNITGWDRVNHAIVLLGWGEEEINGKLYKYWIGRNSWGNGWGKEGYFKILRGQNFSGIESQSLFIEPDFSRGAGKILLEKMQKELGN
Regarding `Nc1ccc2nc(SCC(=O)Nc3cccc(C(F)(F)F)c3)sc2c1`, the “% Inhibition @ 10 uM” value is listed as 6.1%. Then `CC1CC(C)CN(CCCNC(=O)C2CCN(S(=O)(=O)N3CCCCC3)CC2)C1` (stereo not shown), with -3.12%; and `CCC1CCCCN1CCCNC(=O)CS(=O)Cc1nc(-c2ccc(OC)c(OC)c2)oc1C` (stereo not shown), with -4.71%. As for `Cc1ccc(/C=C/C2=NC(=C\c3cccc(Cl)c3)/C(=O)O2)cc1`, the figure is 9.23%; as for `CSCCC(C(=O)Nc1ccc(Cl)cc1)N1C(=O)c2ccccc2C1=O` (stereo not shown), 0.851%. As for `O=CN1CCN(CC(c2ccccc2)c2ccccc2)CC1`, the figure is 1.88%; as for `CCN1CCC(C#N)(NC(=O)[C@H](Cc2c(F)cccc2F)NC(=O)c2ccc(-c3c(Cl)cccc3Cl)nc2)CC1`, -3.14%; as for `Cc1c(C(=O)N2CCCCC2)sc(N)c1C#N`, -2.97%. In the case of `O=C1C2CC=C(Cl)CC2C(=O)N1CCCN1CCOCC1` (stereo not shown), the “% Inhibition @ 10 uM” value is reported as -7.23%.

In the case of `COc1cccc2cc(C(=O)CS(=O)(=O)c3ccc(Br)cc3)c(=O)oc12`, the “% Inhibition @ 10 uM” value is given as 8.35%.

Consider `CCOc1ccc(C2CC(=O)NC(SCC(=O)Nc3ccccc3)=C2C#N)cc1` (stereo not shown), for which the “% Inhibition @ 10 uM” value is on record as 2.01%. As for `CCOc1ccc(S(=O)(=O)Nc2cc(Cl)ccc2OC)cc1`, the figure is -0.116%. As for `CN(C)/C=C/C(=O)c1nnn(-c2ccccc2)c1Nc1ccccc1`, the figure is 0.634%. `Cc1noc(C)c1S(=O)(=O)N1CCC(C(=O)NC2CCN(Cc3ccccc3)CC2)CC1`: the “% Inhibition @ 10 uM” value amounted to 3.33%. As for `CN(CCNC(=O)Cn1ncc2c3ccccc3n(Cc3ccccc3F)c2c1=O)C1CCCCC1`, the figure is 3.4%. As for `CC(C)Cc1cc(-c2ccc(Cl)cc2)c(C#N)c(N)n1`, the figure is 1.88%. Regarding `Cc1ccc(C(=O)Nc2cccc3ccccc23)cc1[N+](=O)[O-]`, the “% Inhibition @ 10 uM” value was 0.467%. As for `CCCCNC(=O)Cn1c(=O)c2cccn2c2cccnc21`, the figure is -0.677%; as for `COc1ccc(-n2cccc2/C=C2/C(=O)NC(=O)N(Cc3ccco3)C2=O)cc1Cl`, -3.35%. As for `COc1ccc(C2NC(=O)Cc3cc(OC)c(OC)cc32)cc1` (stereo not shown), the figure is 1.72%.

With `Oc1ncnc2sc3c(c12)CCN(Cc1ccccc1)C3`, the “% Inhibition @ 10 uM” value was 6.74%. Then `Cc1ccc(NC(=O)c2ccc(-c3ccccc3)cc2)cc1O`, with -2.65%; and `O=C(Nc1ccccc1)Nc1ccc2c(c1)OCO2`, with 5.85%; and `CCOC(=O)N1CCC(N2CCN(c3ncccn3)CC2)CC1`, with 0.217%. Consider `COc1ccc(C(=O)N2CCN(c3ccccc3)CC2)cc1OC`, for which the “% Inhibition @ 10 uM” value is -1.96%.

Take `Cc1cc(O)nc(SCC(=O)O)n1`: the “% Inhibition @ 10 uM” value is on record as -2.75%. As for `CCN(CC)S(=O)(=O)c1ccc(NC(=O)COc2ccccc2C)cc1`, the “% Inhibition @ 10 uM” value was -0.116%. As to `C=CCNC(=O)c1cc(-c2ccco2)on1`, the “% Inhibition @ 10 uM” value was -0.591%. Take `Cc1cc(OCC(=O)Nc2ccc(S(=O)(=O)Nc3ccc(F)cc3)cc2)ccc1Br`: the “% Inhibition @ 10 uM” value was -1.17%. Then `CC(C)(CO)NC(=O)c1ccc(Cl)c(S(=O)(=O)N2CCCCC2)c1`, with -0.467%; and `COc1ccc(N2C(N)=C(C#N)C(c3ccsc3)C3=C2CCCC3=O)c(OC)c1` (stereo not shown), with -4.41%; and `Cn1c(=O)c2nc(NCCCOC(=O)c3ccccc3F)[nH]c2n(C)c1=O`, with -4.78%. For the molecule `CCCCSc1nc(-c2ccccc2)nc2c1Cc1c(CO)cnc(C)c1O2`, the “% Inhibition @ 10 uM” value was 3.02%.

For `CCOC(=O)C1=C(CNCCN2CCOCC2)NC(=O)NC1c1cc(C)ccc1C` (stereo not shown), the “% Inhibition @ 10 uM” value is -0.403%. As for `Cc1ccc(C(=O)NCCn2cccc2)cc1`, the figure is 5.76%; as for `CCOc1ccc(OCCn2c(SCC(=O)O)nc3c(N)ncnc32)cc1`, -3.5%; as for `Oc1nnc(SCc2ccccc2)c(O)n1`, -1.29%. In the case of `Cc1ccc(-c2csc(-c3cc4cc([N+](=O)[O-])ccc4oc3=O)n2)c(C)c1`, the “% Inhibition @ 10 uM” value is on record as -4.31%. For `CNS(=O)(=O)c1cn(CC(=O)NCC2CCCO2)cc1S(=O)(=O)NC` (stereo not shown), the “% Inhibition @ 10 uM” value was -7.47%. Regarding `Cc1oncc1C(=O)Nc1ccc2ccccc2c1`, the “% Inhibition @ 10 uM” value is reported as 8.5%. For `CCOC(=O)N1CCC(N2CNc3c(c(=O)n(C)c(=O)n3C)C2)CC1`, the “% Inhibition @ 10 uM” value is recorded as -1.08%.

For the molecule `COCCCNS(=O)(=O)c1ccc(-c2ccc(S(=O)(=O)NCCCOC)cc2)cc1`, the “% Inhibition @ 10 uM” value was -4.32%. Turning to `O=C(CCc1ccc(S(=O)(=O)NC2CCCCC2)cc1)NCc1ccccc1`, the “% Inhibition @ 10 uM” value was 0.161%. Turning to `O=C(O)/C=C/C(=O)N(Cc1ccccc1)Cc1ccccc1`, the “% Inhibition @ 10 uM” value is on record as 2.38%.

In the case of `COC(=O)c1ccc(Cl)c(-c2ccc(C(=O)N[C@@H](C[C@H](C)c3ccccc3)C(=O)NCC#N)cc2)c1`, the “% Inhibition @ 10 uM” value was 16.9%.

Consider `O=C(NCc1ccc(F)cc1)c1ccc2ccccc2c1`, for which the “% Inhibition @ 10 uM” value was found to be 1.88%.

Consider `CN(C)CC1CSCCC1(O)c1cccc(C(F)(F)F)c1` (stereo not shown), for which the “% Inhibition @ 10 uM” value is listed as 9.01%. With `Oc1cc(C2CCNCC2)[nH]n1`, the “% Inhibition @ 10 uM” value is -6.62%. As for `COc1ccccc1C1NCCc2c1[nH]c1ccccc21` (stereo not shown), the figure is 3.31%; as for `O=C(CN1CCCCC1)NC12CC3CC(CC(C3)C1)C2`, -0.711%. With `CN1CCN(c2nc(-c3cccc(C(=O)NC4(C(=O)NCC#N)CCCCC4)c3)cs2)CC1`, the “% Inhibition @ 10 uM” value is recorded as -3.04%. As for `CC(C)(C)c1ccc(C(=O)Nc2ccc(F)cc2)cc1`, the figure is 0.247%. For the molecule `CCn1cnc2sc(C(=O)N3CCN(Cc4ccc5c(c4)OCO5)CC3)c(C)c2c1=O`, the “% Inhibition @ 10 uM” value was -1.48%. Turning to `COc1cc(NC(=O)c2ccc(OCc3ccccc3)cc2)ccc1NC(=O)c1ccco1`, the “% Inhibition @ 10 uM” value was 3.81%.

In the case of `Cc1ccccc1CSc1nc2nccnc2c(=O)n1Cc1cccs1`, the “% Inhibition @ 10 uM” value is on record as -5.66%.

For `COc1cccc2c1OC(c1cccs1)N1N=C(c3ccccc3O)CC21` (stereo not shown), the “% Inhibition @ 10 uM” value amounted to 6.5%. `N#Cc1c(NC(=O)c2noc3c2CCc2ccccc2-3)sc2c1CCCC2`: the “% Inhibition @ 10 uM” value is -1.21%. Then `Cc1nc2c(C(=O)N3CCOCC3)cnn2c(C)c1Cc1ccc(Cl)cc1`, with -2.26%. As for `Fc1ccccc1C1CC(c2ccc(Br)cc2)=NN1c1ccc(Br)cc1` (stereo not shown), the figure is -11.1%; as for `CCCOc1ccc(C2NC(=O)NC(C)=C2C(=O)OC)cc1` (stereo not shown), 2.25%; as for `CN(C)CCCN(CCCN(C)C)Cc1ccccc1O`, 3.48%.

Consider `CN(Cc1ccccc1)C(=O)CN(C1CCCCC1)S(=O)(=O)c1ccc(Cl)cc1`, for which the “% Inhibition @ 10 uM” value is listed as -3.41%. Consider `CCSc1nc2ccccc2n1Cc1ccc(C(=O)OC)cc1`, for which the “% Inhibition @ 10 uM” value worked out at 0.883%. Then `Cc1cc(C)c(S(=O)(=O)Nc2ccc(Cl)cc2)c(C)c1`, with 9.88%.
